Assay [1] relates to wheat brown rust fungi (Puccinia recondita). In words: Test Example E: wheat brown rust, spray treatment of wheat plants. The following applies: wheat brown rust, spray treatment of wheat plants. It counts as in vivo.
Assay [2] deals with gray mold fungi (Botrytis cinerea). In words: Test Example B: tomato gray mold, spray treatment of tomato plants. To be noted: tomato gray mold, spray treatment of tomato plants.
Assay [3] has as its system grape downy mildew fungus (Plasmopara viticola). In words: Test Example G: grape downy mildew, spray treatment of grape plants. To be noted: grape downy mildew, 250 ppm spray (2.5 ml/pot), 7 to 10 days after inoculation.
For assay [4], the system named is barley powdery mildew fungi (Blumeria graminis f. sp. hordei). Nature of the assay: Test Example D: barley powdery mildew, spray treatment of barley plants. To be noted: barley powdery mildew, spray treatment of barley plants.
Assay [5] deals with cabbage Alternaria sooty spot fungi (Alternaia brassicicola). In words: Test Example C: cabbage Alternaria sooty spot, spray treatment of cabbage plants. It counts as in vivo. To be noted: cabbage Alternaria sooty spot, spray treatment of cabbage plants. From the text: [Test Example C] Cabbage Alternaria Sooty Spot
Test plants (cabbage variety: Shikidori) were cultivated until the cotyledons extended after the sowing of seeds.
<Control Value> Control value=100{1−(n/3)}

Results on eight compounds are retold here after US11000038B2, “Pyridone compounds and agricultural and horticultural fungicides containing the same as active ingredients” (priority 2017, dated 2021).

For `Cc1ccc([N+](=O)[O-])cc1-n1cc(Br)c(=O)c(Cl)c1-c1c(F)cc(F)cc1F` [Compound 324], in assay [1], the “Test E control value” is “H (H shows the control value of more than 50%)”. For the same compound, in assay [2], the “Test B control value” was “H (H shows the control value of more than 50%)”. Moreover, the “Test G control value” in assay [3] is “H (H shows the control value of more than 50%)”. Moreover, the “Test D control value” in assay [4] is “L (L shows the control value of 50% or less)”. Besides, in assay [5], the “Test C control value” is given as “H (H shows the control value of more than 50%)”.
As to `Cc1ccc([N+](=O)[O-])cc1-n1cc(Br)c(=O)c(Br)c1-c1c(F)cc(F)cc1F` [Compound 325], the “Test E control value” in assay [1] is recorded as “H (H shows the control value of more than 50%)”. Besides, the “Test B control value” in assay [2] was “H (H shows the control value of more than 50%)”. For the same compound, the “Test G control value” in assay [3] is “H (H shows the control value of more than 50%)”. Besides, the “Test D control value” in assay [4] is given as “L (L shows the control value of 50% or less)”. Besides, the “Test C control value” in assay [5] is listed as “H (H shows the control value of more than 50%)”.
As to `CCc1c(-c2c(F)cc(F)cc2F)n(-c2ccccc2C)cc(C(C)=O)c1=O` [Compound 327], the “Test E control value” in assay [1] is “H (H shows the control value of more than 50%)”. In addition, in assay [2], the “Test B control value” is given as “H (H shows the control value of more than 50%)”. Besides, in assay [3], the “Test G control value” is on record as “H (H shows the control value of more than 50%)”. Besides, the “Test D control value” in assay [4] is recorded as “L (L shows the control value of 50% or less)”. For the same compound, the “Test C control value” in assay [5] is recorded as “H (H shows the control value of more than 50%)”.
As to `CCc1cn(-c2ccccc2C)c(-c2c(F)cc(F)cc2F)c(C)c1=O` [Compound 328], in assay [1], the “Test E control value” is listed as “H (H shows the control value of more than 50%)”. Besides, the “Test B control value” in assay [2] is “H (H shows the control value of more than 50%)”. In assay [3], the “Test G control value” is reported as “L (L shows the control value of 50% or less)”. In assay [4], the “Test D control value” was “H (H shows the control value of more than 50%)”. Further, the “Test C control value” in assay [5] is on record as “H (H shows the control value of more than 50%)”.
`Cc1cc(Cl)ccc1-n1cc(Br)c(=O)c(Cl)c1-c1c(F)cc(F)cc1F` [Compound 329]: the “Test E control value” in assay [1] is reported as “H (H shows the control value of more than 50%)”. The “Test B control value” in assay [2] is “H (H shows the control value of more than 50%)”. Also, the “Test G control value” in assay [3] was “L (L shows the control value of 50% or less)”. For the same compound, the “Test D control value” in assay [4] is “L (L shows the control value of 50% or less)”. Moreover, in assay [5], the “Test C control value” is “H (H shows the control value of more than 50%)”.
`Cc1cc(Cl)ccc1-n1cc(Br)c(=O)c(Br)c1-c1c(F)cc(F)cc1F` [Compound 330]: the “Test E control value” in assay [1] was “H (H shows the control value of more than 50%)”. Moreover, in assay [2], the “Test B control value” is on record as “H (H shows the control value of more than 50%)”. Moreover, in assay [3], the “Test G control value” is “L (L shows the control value of 50% or less)”. The “Test D control value” in assay [4] is recorded as “L (L shows the control value of 50% or less)”. Also, in assay [5], the “Test C control value” was “H (H shows the control value of more than 50%)”.
As to `Cc1cc(Cl)ccc1-n1cc(Cl)c(=O)c(Br)c1-c1c(F)cc(F)cc1F` [Compound 331], the “Test E control value” in assay [1] is reported as “H (H shows the control value of more than 50%)”. The “Test B control value” in assay [2] is “H (H shows the control value of more than 50%)”. For the same compound, the “Test G control value” in assay [3] is on record as “L (L shows the control value of 50% or less)”. For the same compound, the “Test D control value” in assay [4] is given as “L (L shows the control value of 50% or less)”. In assay [5], the “Test C control value” was “H (H shows the control value of more than 50%)”.
In the case of `Cc1cc(Cl)ccc1-n1cc(Cl)c(=O)c(Cl)c1-c1c(F)cc(F)cc1F` [Compound 332], the “Test E control value” in assay [1] is given as “H (H shows the control value of more than 50%)”. In assay [2], the “Test B control value” is reported as “H (H shows the control value of more than 50%)”. For the same compound, the “Test G control value” in assay [3] is “L (L shows the control value of 50% or less)”. For the same compound, the “Test D control value” in assay [4] is “L (L shows the control value of 50% or less)”. In assay [5], the “Test C control value” is “H (H shows the control value of more than 50%)”.
